The source of these data is the antibiotic and cytotoxicity screens of Wong et al. (2023).

The list shows a part of the results.

The subject of one assay is HSkMC. Kind of assay: cytotoxicity call (relative viability < 0.9). The conditions noted are these: 10 µM.
The subject of a further assay is HepG2. Kind of assay: cytotoxicity call (relative viability < 0.9). The conditions noted are these: 10 µM.
The next assay deals with S. aureus RN4220. Kind of assay: growth inhibition call (relative growth <= 0.2). The conditions noted are these: 50 µM.

As for `CO[C@H]1CN(C)C(=O)c2ccc(NS(=O)(=O)CC(F)(F)F)cc2OC[C@H](C)N(Cc2nccs2)C[C@H]1C`, the cytotoxicity call with HSkMC and in the assay with HepG2 was “inactive” in each case. For the same molecule, the growth inhibition call in the assay with S. aureus RN4220 is “inactive”.

With `NCC[C@@H]1CC[C@H](NC(=O)NC2CCCCC2)[C@H](CO)O1`, the cytotoxicity call in the assay on HSkMC and with HepG2 was “inactive” each time. Also, the growth inhibition call with S. aureus RN4220 was “inactive”.

Consider `C[C@@H]1CN([C@@H](C)CO)C(=O)Cc2cc(NC(=O)NC3CCCCC3)ccc2O[C@@H]1CN(C)S(C)(=O)=O`, for which the cytotoxicity call in the assay with HSkMC and with HepG2 was “inactive” in each case. Besides, in the assay on S. aureus RN4220, the growth inhibition call is “inactive”.

Take `O=C(c1cn(Cc2cncn2Cc2ccc(Br)cc2)cc1-c1cccc2ccccc12)N1CCOCC1`: the cytotoxicity call in the assay on HSkMC and in the assay on HepG2 was “active” each time. For the same molecule, in the assay with S. aureus RN4220, the growth inhibition call is “inactive”.

For the molecule `CCCNC(=O)C[C@H]1CC[C@@H]2[C@@H](COc3ccc(NC(=O)c4ccc5c(c4)OCO5)cc3C(=O)N2C)O1`, the cytotoxicity call in the assay on HSkMC is “inactive”. Also, the cytotoxicity call with HepG2 was “active”. In addition, the growth inhibition call in the assay on S. aureus RN4220 is “inactive”.

Consider `C[C@@H]1CCCCO[C@H](CN(C)C(=O)C2CCCCC2)[C@@H](C)CN([C@@H](C)CO)C(=O)c2cc(NC(=O)CCC(F)(F)F)ccc2O1`, for which the cytotoxicity call with HSkMC and in the assay with HepG2 was “inactive” throughout. Besides, the growth inhibition call in the assay on S. aureus RN4220 was “inactive”.

Turning to `C[C@@H]1CN([C@H](C)CO)C(=O)Cc2cc(NC(=O)NC3CCCCC3)ccc2O[C@@H]1CN(C)Cc1ccc(Oc2ccccc2)cc1`, in the assay on HSkMC, the cytotoxicity call is “inactive”. In the assay on HepG2, the cytotoxicity call is “active”. Moreover, in the assay on S. aureus RN4220, the growth inhibition call is “inactive”.

As to `COCCNC(=O)C[C@@H]1C[C@H]2c3cc(NS(C)(=O)=O)ccc3O[C@H]2[C@@H](CO)O1`, the cytotoxicity call in the assay with HSkMC and in the assay with HepG2 was “inactive” throughout. Moreover, in the assay with S. aureus RN4220, the growth inhibition call was “inactive”.

Turning to `Cc1noc(C)c1NC(=O)Nc1ccc2c(c1)C(=O)N([C@H](C)CO)C[C@@H](C)[C@@H](CN(C)S(=O)(=O)c1cccs1)OCCCC[C@H](C)O2`, the cytotoxicity call with HSkMC and in the assay with HepG2 was “inactive” each time. In addition, in the assay with S. aureus RN4220, the growth inhibition call was “inactive”.

Regarding `C[C@@H]1CCCCO[C@@H](CN(C)C(=O)Nc2ccc3c(c2)OCO3)[C@@H](C)CN([C@@H](C)CO)C(=O)c2cc(NC(=O)CCC(F)(F)F)ccc2O1`, the cytotoxicity call in the assay on HSkMC (human skeletal muscle cells) and in the assay on HepG2 was “inactive” each time. For the same molecule, the growth inhibition call in the assay on S. aureus RN4220 is “inactive”.
